In patent US20140235520A1, “Perfume Compositions” (Givaudan Nederland Services B.V., priority 2005, published 2014):
Some results were stated once for a whole list of compounds, not compound by compound. The name of at least one read-out is uncertain. At least one compound was matched to its structure with a doubt left.

These compounds were tested on Escherichia coli ATCC 10536 (assay: Standardised biofilm detachment assay (96 well microtitre plate, crystal violet OD540) in quarter strength GPC base Formula A). Settings: ingredient as 1 of 4 equal-weight ingredients (other 3 Group B), perfume 0.25% w/w in quarter strength GPC base Formula A, 20 min 21° C.; flavour ingredients classed in toothpaste base.
Type: cell-based

**Q.** CC1CCCCCCCCCCCCC(=O)C1 (stereo not shown) [3-methylcyclopentadecanone] was tested. Which “Group (PDV class: active / non-active / antagonist to biofilm detachment)” value did it give?
**A.** A (Group A materials that assist biofilm detachment are defined as those having a PDV (as defined above) of at least 9)

**Q.** For O=C/C=C/c1ccccc1 [(2E)-3-phenylprop-2-enal], which “Group (PDV class: active / non-active / antagonist to biofilm detachment)” value is on record?
**A.** C (Group C materials that are antagonistic to biofilm detachment are defined as those having a PDV (as defined above) of less than or equal to 0)

**Q.** How did the “Group (PDV class: active / non-active / antagonist to biofilm detachment)” value turn out when OCc1ccccc1 [phenylmethanol] was run?
**A.** A (Group A materials that assist biofilm detachment are defined as those having a PDV (as defined above) of at least 9)

**Q.** Which “Group (PDV class: active / non-active / antagonist to biofilm detachment)” value does the source give for CCCCCC/C=C/C(=O)OC [methyl (2E)-non-2-enoate] here?
**A.** A (Group A materials that assist biofilm detachment are defined as those having a PDV (as defined above) of at least 9)

**Q.** For CCCCCC1COCCC1OC(C)=O (stereo not shown) [3-pentyltetrahydro-2H-pyran-4-yl acetate], which “Group (PDV class: active / non-active / antagonist to biofilm detachment)” value is on record?
**A.** C (Group C materials that are antagonistic to biofilm detachment are defined as those having a PDV (as defined above) of less than or equal to 0)

**Q.** How did the “Group (PDV class: active / non-active / antagonist to biofilm detachment)” value turn out when CCCCCCCCCO [nonanol] was run?
**A.** A (Group A materials that assist biofilm detachment are defined as those having a PDV (as defined above) of at least 9)

**Q.** How did the “Group (PDV class: active / non-active / antagonist to biofilm detachment)” value turn out when Cc1ccc(C(C)C)c(O)c1 [5-methyl-2-(1-methylethyl)phenol] was run?
**A.** A (Group A materials that assist biofilm detachment are defined as those having a PDV (as defined above) of at least 9)

**Q.** For CC(=O)OC1CCCCC1C(C)(C)C (stereo not shown) [2-(1,1-dimethylethyl)cyclohexyl acetate], which “Group (PDV class: active / non-active / antagonist to biofilm detachment)” value is on record?
**A.** A (Group A materials that assist biofilm detachment are defined as those having a PDV (as defined above) of at least 9)

**Q.** With CCCCC/C(C=O)=C\c1ccccc1 [(2E)-2-pentyl-3-phenylprop-2-enal] as the compound, how does the “Group (PDV class: active / non-active / antagonist to biofilm detachment)” value read?
**A.** A (Group A materials that assist biofilm detachment are defined as those having a PDV (as defined above) of at least 9)

**Q.** Which “Group (PDV class: active / non-active / antagonist to biofilm detachment)” value does the source give for COC(C)COC(C)COC(C)CO (stereo not shown) [2-[(2-{[2-(methyloxy)propyl]oxylpropyl)oxy]propan-1-ol] here?
**A.** A (Group A materials that assist biofilm detachment are defined as those having a PDV (as defined above) of at least 9)
